# The inconclusive results got no clear call from the source; some entries with a clear call stand among them for comparison. Potencies beside an inconclusive call are fits to weak or partial responses and may not hold up. Active and inactive are the calls of the source. Calls come from the whole dose curve; as a rule, active = well fitted inhibition curve with a large enough effect; inconclusive = small, poorly fitted or top-dose-only effect, or effect the other way, or another doubt; inactive = no such curve, though single readings can be large or run the other way.
# Assay: Confirmation Concentration-Response Assay for lipid storage modulators; note: nearly all actives have a fitted effect of over 80% in size
# Details: Drosophila S3 cells, lipid droplet BODIPY/CellTracker ratio, 18-24 h; series mostly up to 46.1 µM
# In short: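 Cells at 5,000/well received compound as a titration plus oleic acid (added as 400 uM solution) and were incubated 18–24 h at 24 °C. BODIPY 493/503 lipid signal and CellTracker Red cell count were read by 488-nm laser-scanning cytometry. Activity was normalised to 20 uM Triacsin C.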
# Potency is the fitted concentration of half-maximal effect; tags give direction and shape of the fitted curve.
row,SMILES,Potency
1,COc1ccccc1NC(=O)N(Cc1cc2cc(OC)c(OC)cc2[nH]c1=O)CC1CCCO1 (stereo unspecified),"inconclusive: 12.5 µM [activator, partial curve]"
2,Cc1nc2nc(C)c(NS(=O)(=O)c3cccs3)c(=O)n2[nH]1,"inconclusive: 5.6 µM [activator, partial curve, poor fit]"
3,COC(=O)c1ccc(C)c(NC(=O)c2nn(C)c(=O)c3ccccc23)c1,"inconclusive: 0.56 µM [activator, full curve]"
4,Cc1cc(Cl)c(OCCCn2cncn2)c(Br)c1,"inconclusive: 7.91 µM [activator, partial curve]"
5,COc1ccc(CCNC(=O)COc2ccc(S(=O)(=O)NCC(C)C)cc2Cl)cc1OC,inactive
6,COc1ccc(CCNC(=O)CN2CCCc3ccccc32)cc1OC,"inconclusive: 7.91 µM [activator, full curve, poor fit]"
7,O=C(CCc1cnccn1)NC1CCCc2c1cnn2-c1ccc(F)cc1F (stereo unspecified),"inconclusive: 1.58 µM [activator, full curve, poor fit]"
8,COc1ccc(CCn2ccc(O)c(Cc3c(F)cccc3Cl)c2=O)cc1OC,active: 0.434 µM
9,CCn1nc(C(=O)OCC(=O)Nc2nc(-c3ccc(OC)cc3)cs2)c2ccccc2c1=O,"inconclusive: 0.996 µM [activator, full curve]"
10,COc1cc(C)nc(OCCNC(=O)COc2ccc(Cl)cc2C)n1,"inconclusive: 3.53 µM [activator, partial curve, poor fit]"
11,CCN(C(=O)COC(=O)c1cccc(-n2cnnn2)c1)C1CCCCC1,"inconclusive: 17.7 µM [activator, partial curve, poor fit]"

# Source: PubChem BioAssay AID1569 (National Center for Advancing Translational Sciences (NCATS), 2009)
